56 molecules from ChEMBL document CHEMBL4888484, “Replenishing the malaria drug discovery pipeline: Screening and hit evaluation of the MMV Hit Generation Library 1 (HGL1) against asexual blood stage Plasmodium falciparum ,using a nano luciferase reporter read-out” (2022) can be followed below.

Structures are written as SMILES. Out of some 150,000 compounds screened, about 540 (0.36%) showed an effect of 50% or more. The list shows a part of the results.

The assay concerns Plasmodium falciparum. Put plainly: Primary screen in NF54 nanoGlo assay, in single point, at 2uM, 72h; a lower Z score goes with more inhibition. The settings on record: timepoint 72 hour. Type of assay: functional, Erythrocyte.
As to `O=C(Cn1cccn1)NCc1ccc2c(c1)OCO2`, the “% Inhibition” value is 0% and the Z score was -0.05.
Take `Cc1cc(NC(=O)C2CC(=O)NC(C)C2)cc(C)c1Cl` (configuration not stated): the “% Inhibition” value is reported as -23% and the Z score was 2.04.
Turning to `CC(NCC1CCCn2cc(C(C)(C)C)nc21)C(=O)N1CCOCC1` (configuration not stated), the “% Inhibition” value is given as -11% and the Z score came to 1.35.
For the molecule `CCCNC(=O)NCCn1nnc2cc(S(=O)(=O)N3CCCC3)ccc21`, the “% Inhibition” value is 27% and the Z score is recorded as -3.06.
Taken in the same sequence, the figures for `CCc1ccccc1-n1nc(-c2ccc(C)c(C)c2)cc1-c1ccc(C)c(C)c1` were 28% and -3.22.
For `C#CC[C@H](NC(=O)c1cc(C)cc(C)c1Br)C(N)=O` the same measures were -8% and 0.74.
Turning to `Cc1cc(NCc2noc(-c3ccsc3)n2)ccc1C(N)=O`, the “% Inhibition” value was found to be 34% and the Z score was -4.61.
Taken in the same sequence, the figures for `C[C@@H](c1cccnc1)N(Cc1cnn2ccccc12)CC1CCOCC1` were -8% and 1.05.
For `CCn1cc(C(=O)NCc2cc3c(nc2OC)CN(C2CCCC2)C3=O)cn1` the same measures were -10% and 1.8.
With `C[C@](O)(CNC(=O)N1CCN(S(C)(=O)=O)C1=O)c1cc2ccccc2s1`, the “% Inhibition” value was -26% and the Z score came to 3.27.
Taken in the same sequence, the figures for `C[C@H](CCO)Nc1ccc(Br)cc1C#N` were -12% and 1.65.
Taken in the same sequence, the figures for `COc1ccccc1C1CNCCN1C(=O)C1COc2ccccc2O1` (configuration not stated) were 6% and -0.77.
`Nc1c(N2CCCC2)cccc1N1CCCC1`: the “% Inhibition” value is -6% and the Z score worked out at 1.09.
`COCCc1ccc2oc(NCc3csc(C)n3)nc2c1`: the “% Inhibition” value is -9% and the Z score was 0.85.
`c1nnsc1CN1CCCc2n[nH]cc21`: the “% Inhibition” value was 9% and the Z score is listed as -1.78.
Taken in the same sequence, the figures for `O=C(c1ccnc(N2CC[C@H](Cc3ccc(CO)cc3)C2)c1)N1CCOCC1` were 7% and -0.83.
`OCC(CNc1ccnc(C(F)(F)F)c1)C1CCOC1` (configuration not stated): the “% Inhibition” value is recorded as -12% and the Z score is reported as 1.49.
Taken in the same sequence, the figures for `O=C1NCCCn2nc(C3CCN(S(=O)(=O)c4ccc5c(c4)CCC5)CC3)cc21` were -8% and 1.58.
For `Cc1cc(C(=O)N2C3CCC2CC(S(=O)(=O)c2ccccc2)C3)c(C)o1` (configuration not stated), the “% Inhibition” value is recorded as -5% and the Z score was found to be 0.63.
With `CCCN1CCN(Cc2nn(C)c(=O)[nH]2)c2cc(F)ccc21`, the “% Inhibition” value is 9% and the Z score is -1.19.
Regarding `Cc1noc(C)c1CN(C)CCCN1C(=O)NC(C)(C)C1=O`, the “% Inhibition” value is listed as -1% and the Z score is listed as 0.15.
For `COc1ccc(COCC(=O)NC2CCOCC2N2CCCC2)cc1` (configuration not stated) the same measures were -8% and 1.56.
Taken in the same sequence, the figures for `Cc1cnn(CCC(=O)Nc2ccc(OC[C@H]3CCCCO3)cc2)c1` were -8% and 1.03.
For `CCC(NC(C)c1ccc(-n2cnnn2)cc1)c1c(C)nn(C)c1C` (configuration not stated) the same measures were -10% and 0.97.
For `C[C@@H](C(=O)OCc1cccc2cccnc12)N1CCOCC1`, the “% Inhibition” value is reported as -4% and the Z score is 0.63.
For `Cn1ncc2cc(-c3ccc(C(=O)NCCOCCO)cc3)ccc21`, the “% Inhibition” value is listed as 12% and the Z score is recorded as -1.62.
As for `O=C(C1CCC1)N1CC[C@]23C(=O)N(Cc4cn(nn4)CCCOc4cccc(c4)[C@H]12)c1ccccc13`, the “% Inhibition” value is given as -8% and the Z score worked out at 1.53.
Taken in the same sequence, the figures for `CCNC(=O)c1cccnc1N(C)CCn1ccnc1` were -12% and 1.23.
For `O=C(c1ccco1)N1CCC[C@H]1c1ccc2c(c1)OCCCO2` the same measures were -7% and 1.07.
Consider `CC(C(=O)NCCC1=CCCCC1)N1CCOC(c2nccs2)C1` (configuration not stated), for which the “% Inhibition” value came out at 7% and the Z score is recorded as -0.83.
For `CCOc1ccc2nc(NC(=O)Cc3csc(NC(=O)c4ccc(OC)c(OC)c4)n3)sc2c1` the same measures were -23% and 3.02.
For `COc1cc(OC)c(CN2C[C@H](O)[C@@H](N3CCCC3)C2)cc1Cl` the same measures were -2% and 0.3.
For `O=C(Cc1c(F)cccc1Cl)N1CC[C@@H]2OCc3cnnn3[C@H]2C1` the same measures were 2% and -0.29.
Turning to `CN(C)C(=O)C(C)(C)N[C@@H]1C=CCCC1`, the “% Inhibition” value is reported as -8% and the Z score turned out to be 1.2.
Consider `O=C(COc1cccc2c1N=S=N2)Nc1ccc(F)cc1`, for which the “% Inhibition” value was determined as 5% and the Z score was -0.82.
On to `CC(C)N1C(=O)NC2(CCN(C(C(N)=O)c3ccc(F)cc3)C2)C1=O` (configuration not stated), for which the “% Inhibition” value is given as -5% and the Z score was found to be 0.52.
For `Cc1cc(C)n([C@@H](C)C(=O)N(CCC#N)c2ccccc2)n1` the same measures were -12% and 1.73.
Taken in the same sequence, the figures for `CCc1sc(=O)[nH]c1-c1ccccc1` were -19% and 2.1.
As to `COc1ccc(C(=O)NC[C@H]2CCCN2Cc2ccccc2)nn1`, the “% Inhibition” value is -3% and the Z score is 0.43.
Regarding `Cc1cccc(O)c1C(=O)N[C@@]1(c2ccc(S(C)(=O)=O)cc2)CCOC1`, the “% Inhibition” value was -1% and the Z score is listed as 0.13.
With `CC(CN1CCCCCC1)NC(C)C(C)N1CCOCC1` (configuration not stated), the “% Inhibition” value was -8% and the Z score is recorded as 0.76.
Consider `CN1CCN(c2ncnc(-c3ccc(Cl)cc3F)c2N)CC1`, for which the “% Inhibition” value is -17% and the Z score is listed as 2.28.
Regarding `COc1cccc(N2CCN(C(=O)c3ccc(-c4noc(C5CCCC5)n4)cc3)CC2)c1`, the “% Inhibition” value is on record as -10% and the Z score turned out to be 1.21.
`CC(C)(C)N(CC(N)=O)Cc1ccc(C#N)cc1Br`: the “% Inhibition” value came out at 6% and the Z score is listed as -0.53.
On to `CC(Cn1ccnc1)NC(=O)C1(C)CC1(Cl)Cl` (configuration not stated), for which the “% Inhibition” value is -33% and the Z score is 3.92.
For the molecule `Cc1cc(CNS(=O)(=O)c2cccc(-n3cnnn3)c2)no1`, the “% Inhibition” value is recorded as 7% and the Z score is listed as -0.66.
Taken in the same sequence, the figures for `CCN(CC1CCOCC1)C(=O)c1cccc(CC2CCNCC2)c1` were -8% and 1.48.
For `O=S(=O)(NC1CC1)c1ccc2c(c1)OCCCO2` the same measures were 0% and 0.01.
As to `O=C(CCN1C[C@@H]2CC[C@H]1C2)NCc1cc(-c2ccccc2Cl)on1`, the “% Inhibition” value was -7% and the Z score came out at 1.04.
On to `CC(C)C[C@H]1CN(C)CCN1C(=O)CN1CCOCC1=O`, for which the “% Inhibition” value is listed as -3% and the Z score came out at 0.42.
For `C=CCN(Cc1cccc2c1OCCO2)[C@H]1CCS(=O)(=O)C1` the same measures were -8% and 0.66.
For `Cc1[nH]c(C(=O)NCc2cccnc2)c(C)c1S(=O)(=O)N1CCCCCC1` the same measures were 2% and -0.25.
With `Cn1cc(C(O)CNC(=O)NC2CC2c2cccc(Cl)c2)cn1` (configuration not stated), the “% Inhibition” value is -12% and the Z score worked out at 1.27.
For the molecule `O=C(COc1ccc(-c2ccccc2)cc1)Nc1ccc2c(c1)OCCCO2`, the “% Inhibition” value was found to be 0% and the Z score was -0.01.
For `Cc1ncccc1C(=O)N1C[C@H](CN(C)C)C2(CCCCC2)C1`, the “% Inhibition” value is -3% and the Z score came to 0.56.
For `COc1ccccc1NC(=O)[C@@H]1CCn2c(C(=O)c3ccccc3)ccc21` the same measures were 1% and -0.2.

By % Inhibition is commonly meant the change of the read-out against control, counted positive when it falls.
